Assay results: PubChem BioAssay AID1645887 (National Center for Advancing Translational Sciences (NCATS), 2021)
Several values for one entry are separate records, joined by “and”; a condition that tells them apart may be missing. Equal entries are not always repeated. Structures can show the parent of a compound that is named as a salt. The whole screen tested about 16,000 compounds, of which about 40 (0.2%) were called active. About 1% were inconclusive and are not listed. Calls follow the shape of the dose curve; as a rule, active = well fitted activation curve with a large enough effect; inconclusive = small, poorly fitted or top-dose-only effect, or another doubt; inactive = no such curve, though single readings can be large or run the other way. This is one part of the list. Residues, ends and D or L forms follow the SMILES beside them. *: point of attachment. Tfa = O=C(C(F)(F)F)*

molecular target: Rap guanine nucleotide exchange factor 4 (Homo sapiens) (UniProt Q8WZA2); assay: Validation qHTS for agonist of cAMP-regulated guanine nucleotide exchange factor 4 (EPAC2); settings: EPAC2 Rap1B BODIPY-GDP exchange, fluorescence; activation: active compounds read high;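 also: exchange makes BODIPY-GDP fluorescence drop when released from Rap1B; series mostly up to about 150 µM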
How it was run: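 Signal normalized against 6.5 mM cAMP as agonist control. Mix of EPAC2 (100 nM), RAP1B-BODIPY-GDP (250 nM) and GDP (50 uM) was read kinetically at 480/540 nm, every 5 min over 30 min, after 5 min room-temperature incubation with compound.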
% is scaled to controls: 0 for no effect and ±100 for the full control effect.

UniProt Q8WZA2, sequence (Q8WZA2 whole entry, looked up): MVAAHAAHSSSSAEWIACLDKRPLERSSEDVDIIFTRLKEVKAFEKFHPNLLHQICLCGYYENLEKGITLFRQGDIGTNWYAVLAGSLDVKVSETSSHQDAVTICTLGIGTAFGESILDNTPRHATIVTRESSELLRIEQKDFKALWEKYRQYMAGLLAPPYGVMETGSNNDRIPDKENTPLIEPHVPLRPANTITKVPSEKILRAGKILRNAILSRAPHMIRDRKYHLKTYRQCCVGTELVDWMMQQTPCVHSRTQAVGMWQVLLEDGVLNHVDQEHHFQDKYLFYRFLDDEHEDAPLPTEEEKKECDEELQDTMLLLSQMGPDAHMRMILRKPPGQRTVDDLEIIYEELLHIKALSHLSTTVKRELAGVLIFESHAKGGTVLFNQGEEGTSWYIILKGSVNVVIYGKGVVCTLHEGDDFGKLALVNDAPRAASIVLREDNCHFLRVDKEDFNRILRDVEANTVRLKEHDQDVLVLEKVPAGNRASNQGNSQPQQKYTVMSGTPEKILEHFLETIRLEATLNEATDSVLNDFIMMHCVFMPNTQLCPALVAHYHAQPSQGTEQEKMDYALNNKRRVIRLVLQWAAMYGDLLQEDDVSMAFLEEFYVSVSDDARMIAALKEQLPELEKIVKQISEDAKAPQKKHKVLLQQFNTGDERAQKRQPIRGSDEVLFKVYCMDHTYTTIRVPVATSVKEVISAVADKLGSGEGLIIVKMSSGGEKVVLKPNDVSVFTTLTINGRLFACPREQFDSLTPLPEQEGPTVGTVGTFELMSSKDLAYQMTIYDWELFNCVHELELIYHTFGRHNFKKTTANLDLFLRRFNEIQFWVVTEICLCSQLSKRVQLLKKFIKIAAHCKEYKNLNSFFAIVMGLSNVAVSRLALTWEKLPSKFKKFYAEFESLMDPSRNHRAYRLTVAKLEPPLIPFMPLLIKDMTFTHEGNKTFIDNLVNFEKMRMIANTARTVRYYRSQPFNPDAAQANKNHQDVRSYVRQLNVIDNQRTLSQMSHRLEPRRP

activation, inactive:
CC(C)C(NC(=O)C(Cc1ccc(O)cc1)NC(=O)C(NC(=O)C(F)(F)F)C(C)C)C(=O)O (stereo not drawn) (Tfa-Val-Tyr-Val-OH; configuration not given here) -7.05%
CC(C)c1nc(CN(C)C(=O)N[C@H](C(=O)N[C@@H](Cc2ccccc2)C[C@H](O)[C@H](Cc2ccccc2)NC(=O)OCc2cncs2)C(C)C)cs1 6.47% and -60.3%
COc1cc2c(cc1OC)-c1cc3nc4ccccc4nc3n1C(C)(C)C2 -11.9%
CCCOC(=O)c1c(-c2ccccc2)nc(CC)c(C(=O)SCC)c1CCC -30.1%
COc1ccccc1OCCNCC(O)COc1cccc2[nH]c3ccccc3c12 (stereo unspecified) -14.5% and -10.6%
COc1ccc(CNc2nc(-c3ccccc3CN(C)C)nc3ccccc23)c(OC)c1 7.2%
CC1C(=O)CC2C3(C)CCC2(C(C)C(=O)O)C(=O)C13 (stereo unspecified) -5.93%
CN1CCN(c2nc(-c3cccc(C#N)c3)nc3ccccc23)CC1 -22.7%
CC(C)=CCc1c(O)cc2occ(-c3ccc4c(c3)OCO4)c(=O)c2c1O 8.54%
O=S(=O)(c1ccccc1)N1CCC[C@@]2(CCN(c3ncccn3)C2)C1 -15.5%
NC(CCC(=O)NCS(=O)(=O)O)C(=O)O (stereo unspecified) 3.53%
N[C@@H](C(=O)O)c1ccc(O)c(C(=O)O)c1 -3.77%
Cc1cc(CC(C)CC(C)(C)C)n(O)c(=O)c1 (stereo unspecified) (tested in a mixture with another compound) -34%
OC1(c2cccnc2)CCN(Cc2ccc3c(c2)CN(Cc2cc4ccccc4s2)CCO3)CC1 -11.4%
COc1ncc2nc(C)c(=O)n(-c3ccccc3)c2n1 -4.73%
C1=C/C(=C2/C=Cc3ccccc32)c2ccccc2N1 -2.61%
CCn1cc(C(=O)O)c(=O)c2cc(F)c(N3CCNCC3)cc21 12.2% and -2.65% and -20.6%
C=C1C(=O)OC2C[C@@]3(C)CCCC(=C)[C@@H]3CC12 (stereo partly specified) 2.93%
CC(C)C[C@@H](CO)N1CCN(CC(C)C)CCC1=O -2.03% and -23.9%
Cc1cc2c(cc1C)NC1(C[C@H]3CCC(=O)N4CC[C@@H](C1)[C@@H]34)C(=NC(C)(C)CC(C)(C)C)N2 (stereo partly specified) -16.6%
Cc1ccccc1-c1nccc(Nc2ccc(F)cc2)n1 -31%
